PubChem BioAssay (NCI)
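48-hour exposure; five concentrations; linearly interpolated endpoints. Abbreviation: GI50, concentration required for 50% inhibition of growth. At the TGI there is no net growth.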

System: NCI-H322M lung
Test: inhibition of tumour cell growth, NCI panel, 48 h

In the case of O=C(CSc1nnc(-c2ccc(-c3nc4ccccc4[nH]3)cc2)o1)Nc1ccc(Cl)cc1, the GI50 is reported as 11.4 µM and the TGI is reported as 25.6 µM.
